# The list shows a part of the results. The full chains were built here from the parent and the listed change. Values near 0.05 are background.
# B1: TEV protease; numbered along this chain (parent)
# chain: MGESLFKGPRDYNPISSSICHLTNESDGHTTSLYGIGFGPFIITNKHLFRRNNGTLVVQSLHGVFKVKDTTTLQQHLVDGRDMIIIRMPKDFPPFPQKLKFREPQREERICLVTTNFQTKSMSSMVSDTSCTFPSGDGIFWKHWIQTKDGQCGSPLVSTRDGFIVGIHSASNFTNTNNYFTSVPKNFMELLTNQEAQQWVSGWRLNADSVLWGGHKVFMVKPEEPFQPVKEATQL
# Variants of: B1
# Assay: raw area under fraction-flipped curve 0-4 h after induction (AUC4h, not background-subtracted), DNA-recorder readout of cleavage of the substrate (dimensionless); higher = more cleavage of the substrate by the protease variant
# Conditions: temperature: 34 °C; time window: 0-4 h after rhamnose induction
# Protocol: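 In vivo DNA recorder in E. coli TOP10(DE3) ΔrhaA at 34 °C. Each TEVp single-site mutant (parent TEVp 0) is paired with a single-site variant of the 7-mer TEVs (canonical ENLYFQ|S). The substrate sits between flexible linkers in a Bxb1-sfGFP-TEVs-SsrA fusion, so cleavage stabilises Bxb1 and speeds flipping of a recombination array, read by NGS. The value is the raw area under the fraction-flipped curve over 0-4 h after rhamnose induction (AUC4h), with ≥20 reads per time point. It is not background-subtracted; inactive controls average about 0.047.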
# 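Further: Bxb1 expression induced with 0.2% (w/v) L-rhamnose at OD600 near 0.5, cultures sampled hourly, flipped fraction per protease–substrate barcode pair counted by paired-end Illumina sequencing.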
Variant,area with substrate ENLYFQA,area with substrate ENLYFQC,area with substrate ENLYFQD,area with substrate ENLYFQG,area with substrate ENLYFQH,area with substrate ENLYFQI,area with substrate ENLYFQK,area with substrate ENLYFQL,area with substrate ENLYFQN,area with substrate ENLYFQP,area with substrate ENLYFQQ,area with substrate ENLYFQR,area with substrate ENLYFQS,area with substrate ENLYFQT,area with substrate ENLYFQV,area with substrate ENLYFQM,area with substrate ENLYFQW,area with substrate ENLYFQY,area with substrate ENLYFQF,area with substrate ENLYFQE
MQESLFKGPRDYNPISSSICHLTNESDGHTTSLYGIGFGPFIITNKHLFRRNNGTLVVQSLHGVFKVKDTTTLQQHLVDGRDMIIIRMPKDFPPFPQKLKFREPQREERICLVTTNFQTKSMSSMVSDTSCTFPSGDGIFWKHWIQTKDGQCGSPLVSTRDGFIVGIHSASNFTNTNNYFTSVPKNFMELLTNQEAQQWVSGWRLNADSVLWGGHKVFMVKPEEPFQPVKEATQL [G2Q],0.0906,0.141,0.0639,0.111,0.074,0.0825,0.0685,0.0644,0.0801,0.0655,0.0752,0.0535,0.116,0.0679,0.0625,–,–,–,–,–
MGPSLFKGPRDYNPISSSICHLTNESDGHTTSLYGIGFGPFIITNKHLFRRNNGTLVVQSLHGVFKVKDTTTLQQHLVDGRDMIIIRMPKDFPPFPQKLKFREPQREERICLVTTNFQTKSMSSMVSDTSCTFPSGDGIFWKHWIQTKDGQCGSPLVSTRDGFIVGIHSASNFTNTNNYFTSVPKNFMELLTNQEAQQWVSGWRLNADSVLWGGHKVFMVKPEEPFQPVKEATQL [E3P],0.0891,0.0984,0.0735,0.0902,0.0853,–,0.0644,0.063,0.0802,–,–,0.058,0.101,0.0737,–,0.0963,–,–,–,–
MGEELFKGPRDYNPISSSICHLTNESDGHTTSLYGIGFGPFIITNKHLFRRNNGTLVVQSLHGVFKVKDTTTLQQHLVDGRDMIIIRMPKDFPPFPQKLKFREPQREERICLVTTNFQTKSMSSMVSDTSCTFPSGDGIFWKHWIQTKDGQCGSPLVSTRDGFIVGIHSASNFTNTNNYFTSVPKNFMELLTNQEAQQWVSGWRLNADSVLWGGHKVFMVKPEEPFQPVKEATQL [S4E],0.131,0.15,0.0807,–,0.0992,–,0.0495,0.0633,0.0889,–,–,0.0508,0.121,0.0659,–,0.105,0.0713,0.0721,–,–
MGEPLFKGPRDYNPISSSICHLTNESDGHTTSLYGIGFGPFIITNKHLFRRNNGTLVVQSLHGVFKVKDTTTLQQHLVDGRDMIIIRMPKDFPPFPQKLKFREPQREERICLVTTNFQTKSMSSMVSDTSCTFPSGDGIFWKHWIQTKDGQCGSPLVSTRDGFIVGIHSASNFTNTNNYFTSVPKNFMELLTNQEAQQWVSGWRLNADSVLWGGHKVFMVKPEEPFQPVKEATQL [S4P],0.0899,0.133,0.0489,0.0926,0.071,0.0673,0.0613,0.0656,0.0799,0.0608,–,0.0564,0.1,0.0642,0.0675,0.075,0.0682,0.0798,0.0708,–
MGEVLFKGPRDYNPISSSICHLTNESDGHTTSLYGIGFGPFIITNKHLFRRNNGTLVVQSLHGVFKVKDTTTLQQHLVDGRDMIIIRMPKDFPPFPQKLKFREPQREERICLVTTNFQTKSMSSMVSDTSCTFPSGDGIFWKHWIQTKDGQCGSPLVSTRDGFIVGIHSASNFTNTNNYFTSVPKNFMELLTNQEAQQWVSGWRLNADSVLWGGHKVFMVKPEEPFQPVKEATQL [S4V],0.125,0.141,0.111,0.134,0.0998,–,0.0653,0.0709,0.112,0.0507,0.0834,0.0531,0.13,0.0694,–,0.102,0.0883,0.101,–,–
MGESLFKGPIDYNPISSSICHLTNESDGHTTSLYGIGFGPFIITNKHLFRRNNGTLVVQSLHGVFKVKDTTTLQQHLVDGRDMIIIRMPKDFPPFPQKLKFREPQREERICLVTTNFQTKSMSSMVSDTSCTFPSGDGIFWKHWIQTKDGQCGSPLVSTRDGFIVGIHSASNFTNTNNYFTSVPKNFMELLTNQEAQQWVSGWRLNADSVLWGGHKVFMVKPEEPFQPVKEATQL [R10I],0.0741,0.119,0.0657,–,–,0.0562,0.0647,–,0.0818,–,–,0.0578,0.0956,0.0349,–,0.0879,–,–,0.0819,–
MGESLFKGPRIYNPISSSICHLTNESDGHTTSLYGIGFGPFIITNKHLFRRNNGTLVVQSLHGVFKVKDTTTLQQHLVDGRDMIIIRMPKDFPPFPQKLKFREPQREERICLVTTNFQTKSMSSMVSDTSCTFPSGDGIFWKHWIQTKDGQCGSPLVSTRDGFIVGIHSASNFTNTNNYFTSVPKNFMELLTNQEAQQWVSGWRLNADSVLWGGHKVFMVKPEEPFQPVKEATQL [D11I],0.0968,0.0953,–,0.156,0.0861,–,–,0.0645,0.0705,–,–,0.0666,0.0915,–,0.0729,–,0.0506,0.0943,–,–
MGESLFKGPRKYNPISSSICHLTNESDGHTTSLYGIGFGPFIITNKHLFRRNNGTLVVQSLHGVFKVKDTTTLQQHLVDGRDMIIIRMPKDFPPFPQKLKFREPQREERICLVTTNFQTKSMSSMVSDTSCTFPSGDGIFWKHWIQTKDGQCGSPLVSTRDGFIVGIHSASNFTNTNNYFTSVPKNFMELLTNQEAQQWVSGWRLNADSVLWGGHKVFMVKPEEPFQPVKEATQL [D11K],0.0738,0.115,0.0629,0.087,–,–,0.0749,0.0598,0.0782,–,0.0808,0.046,0.0945,0.0636,0.0662,0.0635,0.0664,0.0751,–,–
MGESLFKGPRRYNPISSSICHLTNESDGHTTSLYGIGFGPFIITNKHLFRRNNGTLVVQSLHGVFKVKDTTTLQQHLVDGRDMIIIRMPKDFPPFPQKLKFREPQREERICLVTTNFQTKSMSSMVSDTSCTFPSGDGIFWKHWIQTKDGQCGSPLVSTRDGFIVGIHSASNFTNTNNYFTSVPKNFMELLTNQEAQQWVSGWRLNADSVLWGGHKVFMVKPEEPFQPVKEATQL [D11R],0.0895,0.122,0.072,0.111,0.0986,0.0682,0.0732,0.0593,–,0.0553,–,–,0.112,0.077,0.0593,0.0726,0.068,0.0677,0.0796,–
MGESLFKGPRDPNPISSSICHLTNESDGHTTSLYGIGFGPFIITNKHLFRRNNGTLVVQSLHGVFKVKDTTTLQQHLVDGRDMIIIRMPKDFPPFPQKLKFREPQREERICLVTTNFQTKSMSSMVSDTSCTFPSGDGIFWKHWIQTKDGQCGSPLVSTRDGFIVGIHSASNFTNTNNYFTSVPKNFMELLTNQEAQQWVSGWRLNADSVLWGGHKVFMVKPEEPFQPVKEATQL [Y12P],0.104,0.118,0.071,0.0735,0.0873,0.0559,0.0596,0.059,–,0.0646,0.0698,0.0551,0.0967,0.0643,0.0692,0.107,0.066,0.0792,0.0736,–
MGESLFKGPRDYNPISSFICHLTNESDGHTTSLYGIGFGPFIITNKHLFRRNNGTLVVQSLHGVFKVKDTTTLQQHLVDGRDMIIIRMPKDFPPFPQKLKFREPQREERICLVTTNFQTKSMSSMVSDTSCTFPSGDGIFWKHWIQTKDGQCGSPLVSTRDGFIVGIHSASNFTNTNNYFTSVPKNFMELLTNQEAQQWVSGWRLNADSVLWGGHKVFMVKPEEPFQPVKEATQL [S18F],0.0817,0.106,0.0709,0.0712,–,0.0517,0.0541,0.0462,–,0.0528,–,0.0561,0.0895,0.0653,0.0626,0.0977,0.0562,–,0.0543,0.0443
MGESLFKGPRDYNPISSVICHLTNESDGHTTSLYGIGFGPFIITNKHLFRRNNGTLVVQSLHGVFKVKDTTTLQQHLVDGRDMIIIRMPKDFPPFPQKLKFREPQREERICLVTTNFQTKSMSSMVSDTSCTFPSGDGIFWKHWIQTKDGQCGSPLVSTRDGFIVGIHSASNFTNTNNYFTSVPKNFMELLTNQEAQQWVSGWRLNADSVLWGGHKVFMVKPEEPFQPVKEATQL [S18V],0.107,0.103,0.0613,0.0952,0.0818,0.0605,0.0626,0.0599,0.0767,0.0645,0.0768,0.0558,0.1,0.0697,–,0.0862,0.0685,0.0752,–,–
MGESLFKGPRDYNPISSSIAHLTNESDGHTTSLYGIGFGPFIITNKHLFRRNNGTLVVQSLHGVFKVKDTTTLQQHLVDGRDMIIIRMPKDFPPFPQKLKFREPQREERICLVTTNFQTKSMSSMVSDTSCTFPSGDGIFWKHWIQTKDGQCGSPLVSTRDGFIVGIHSASNFTNTNNYFTSVPKNFMELLTNQEAQQWVSGWRLNADSVLWGGHKVFMVKPEEPFQPVKEATQL [C20A],0.0964,0.111,0.065,–,0.0719,0.065,–,0.0512,0.0914,–,–,0.0534,0.0999,0.0663,0.0278,0.0866,0.059,0.072,–,–
MGESLFKGPRDYNPISSSIEHLTNESDGHTTSLYGIGFGPFIITNKHLFRRNNGTLVVQSLHGVFKVKDTTTLQQHLVDGRDMIIIRMPKDFPPFPQKLKFREPQREERICLVTTNFQTKSMSSMVSDTSCTFPSGDGIFWKHWIQTKDGQCGSPLVSTRDGFIVGIHSASNFTNTNNYFTSVPKNFMELLTNQEAQQWVSGWRLNADSVLWGGHKVFMVKPEEPFQPVKEATQL [C20E],0.0349,0.0394,–,0.0473,0.045,0.0396,0.0513,0.0462,0.0422,0.0448,0.0443,0.0355,0.0478,0.0558,0.035,0.0428,0.0453,0.0529,0.0581,–
MGESLFKGPRDYNPISSSICHATNESDGHTTSLYGIGFGPFIITNKHLFRRNNGTLVVQSLHGVFKVKDTTTLQQHLVDGRDMIIIRMPKDFPPFPQKLKFREPQREERICLVTTNFQTKSMSSMVSDTSCTFPSGDGIFWKHWIQTKDGQCGSPLVSTRDGFIVGIHSASNFTNTNNYFTSVPKNFMELLTNQEAQQWVSGWRLNADSVLWGGHKVFMVKPEEPFQPVKEATQL [L22A],0.0861,0.0867,0.0539,0.141,0.0617,0.0533,0.0552,0.0525,–,0.0527,–,0.0456,0.0681,0.0537,0.0542,0.0451,0.0574,0.0526,0.052,–
MGESLFKGPRDYNPISSSICHLMNESDGHTTSLYGIGFGPFIITNKHLFRRNNGTLVVQSLHGVFKVKDTTTLQQHLVDGRDMIIIRMPKDFPPFPQKLKFREPQREERICLVTTNFQTKSMSSMVSDTSCTFPSGDGIFWKHWIQTKDGQCGSPLVSTRDGFIVGIHSASNFTNTNNYFTSVPKNFMELLTNQEAQQWVSGWRLNADSVLWGGHKVFMVKPEEPFQPVKEATQL [T23M],0.0829,0.122,0.0806,0.0973,0.115,–,0.059,0.0496,–,0.0541,–,0.0671,0.101,0.0639,0.0638,0.0858,0.0582,–,0.0704,0.0371
MGESLFKGPRDYNPISSSICHLTKESDGHTTSLYGIGFGPFIITNKHLFRRNNGTLVVQSLHGVFKVKDTTTLQQHLVDGRDMIIIRMPKDFPPFPQKLKFREPQREERICLVTTNFQTKSMSSMVSDTSCTFPSGDGIFWKHWIQTKDGQCGSPLVSTRDGFIVGIHSASNFTNTNNYFTSVPKNFMELLTNQEAQQWVSGWRLNADSVLWGGHKVFMVKPEEPFQPVKEATQL [N24K],0.0055,0.0756,0.0597,0.0631,0.0725,–,0.0606,0.0561,–,–,–,0.0581,0.0826,0.0581,0.0523,0.0676,0.0617,–,0.0534,0.0661

# Reference: the supplement of paper PMC12217912
